Experimental data reported in the supplement of paper PMC4967469.
A lower IC50 marks a more sensitive line; a limit (>, <) means that the fit lies beyond the doses tested. AUC is the area under the same curve over the 256-fold range up to the top dose, as a fraction; the more sensitive the line, the further below 1. For some assays here: A top dose marked as inferred was derived from the fitted curves, not read from the paper. For some assays here: Where an entry number is given, a second screen of the drug exists; the two often differ.

Columns and labels:
Assay in all cases: Viability of human cancer cell lines after 72 h of drug (GDSC screen)
[1] = compound: C#Cc1cccc(Nc2ncnc3cc(OC)c(OCCCCCCC(=O)NO)cc23)c1 [CUDC-101]; conditions: top dose 5.12 µM; top dose inferred
Protocol: (§1)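 Human cancer cell lines in 384-well plates, medium with 10% serum, drug for 72 h over a 256-fold dose range (nine 2-fold or five 4-fold steps up to the top dose). Adherent lines were fixed and stained with the nucleic acid dye Syto60, suspension lines read with resazurin; signal relative to control wells, capped at 0 and 100%. One two-parameter sigmoid per drug and line, fitted in a mixed model over all curves with the slope shared within a line.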

[2] = compound: CC(C)(C)c1cc(NC(=O)Nc2ccc(-c3cn4c(n3)sc3cc(OCCN5CCOCC5)ccc34)cc2)no1 [AC220]; conditions: top dose 1.024 µM; top dose inferred
Protocol: as §1

[3] = compound: COc1cc(F)c(F)c(Nc2ccc(I)cc2F)c1NS(=O)(=O)C1(C[C@H](O)CO)CC1 [RDEA119]; conditions: top dose 5 µM, top dose inferred
Protocol: as §1

[4] = compound: Fc1cc(-c2ccnc(Nc3ccc(-n4cnc(N5CCOCC5)n4)cc3)n2)cc(N2CCOCC2)c1 [JNK-9L]; conditions: top dose 5.12 µM; top dose inferred
Protocol: as §1

[5] = compound: O=c1[nH]cc(F)c(=O)[nH]1 [5-Fluorouracil]; conditions: top dose 32 µM; top dose inferred
Protocol: as §1

[6] = compound: OC[C@H](Cc1ccccc1)Nc1nc(Oc2ccc3c(c2)CCC3)nc2c1ncn2Cc1ccc(-c2ccccc2)cc1 [QS11]; conditions: top dose 10.24 µM
Protocol: as §1

[7] = compound: NCC(=O)Nc1ccc(-n2nc(C(F)(F)F)cc2-c2ccc3c(ccc4ccccc43)c2)cc1 [OSU-03012]; conditions: top dose 16 µM; top dose inferred
Protocol: as §1

Cell Line	AUC [1]	IC50 [1] [nM]	AUC [2]	IC50 [2] [nM]	AUC ([3]; screen: GDSC drug entry 1014)	IC50 ([3]; screen: GDSC drug entry 1014) [nM]	AUC ([3]; screen: GDSC drug entry 1526)	IC50 ([3]; screen: GDSC drug entry 1526) [nM]	AUC [4]	IC50 [4] [nM]	AUC [5]	IC50 [5] [nM]	AUC [6]	IC50 [6] [nM]	AUC [7]	IC50 [7] [nM]
IGR-37 (melanoma, adherent)	0.423	202	0.989	> 1020	0.125	23.4	0.147	29	0.537	400	0.987	> 32000	0.824	5380		
RCC-ER (kidney, adherent)	0.933	> 5120	0.986	> 1020	0.93	> 5000	0.872	> 5000			0.963	> 32000				
OV-56 (ovary, adherent)	0.732	1420	0.989	> 1020	0.759	1680	0.802	2340			0.813	16400				
Hey (ovary, adherent)	0.452	239	0.988	> 1020	0.631	702	0.722	1270			0.562	2930				
RCC-AB (kidney, adherent)	0.463	245	0.958	> 1020	0.809	3650	0.904	> 5000			0.784	18200				
RL95-2 (endometrium, adherent)	0.45	234	0.987	> 1020			0.68	988	0.541	415	0.873	30200				
D-247MG (glioma, adherent)	0.52	369	0.848	> 1020	0.795	3360	0.797	3400	0.775	2810	0.963	> 32000				
KYAE-1 (oesophagus, suspension)	0.632	772	0.824	699	0.886	> 5000	0.93	> 5000			0.825	21900				
JHOS-2 (ovary, adherent)	0.524	377	0.983	> 1020	0.528	377	0.671	1020			0.916	> 32000				
D-423MG (glioma, adherent)	0.463	247	0.976	> 1020	0.836	4410	0.874	> 5000			0.826	25300				
RCC-JW (kidney, adherent)	0.589	566	0.981	> 1020	0.852	4020	0.873	> 5000			0.962	> 32000				
HOP-92 (large cell lung carcinoma, adherent)	0.821	3580	0.984	> 1020			0.728	1560	0.786	2590	0.981	> 32000	0.961	> 10200		
RCC-FG2 (kidney, adherent)	0.827	4380	0.978	> 1020	0.902	> 5000	0.841	4960			0.945	> 32000				
OVCA420 (ovary, adherent)	0.661	1040	0.981	> 1020	0.585	575	0.613	710			0.929	> 32000				
JHOS-3 (ovary, adherent)	0.822	4130	0.953	> 1020	0.724	1640	0.768	2390			0.943	> 32000				
SNU-1040 (large intestine, adherent)	0.768	2580	0.93	> 1020			0.929	> 5000			0.842	> 32000				
HCC202 (breast, adherent)	0.447	217			0.979	> 5000	0.968	> 5000			0.891	> 32000	0.962	> 10200	0.727	5830
OACp4C (oesophagus, adherent)	0.308	82.1	0.982	> 1020	0.7	1290	0.712	1420			0.871	> 32000				
ESO26 (oesophagus, adherent)	0.472	270	0.985	> 1020	0.922	> 5000	0.983	> 5000			0.546	2650				
RCC-MF (kidney, adherent)	0.638	864	0.968	> 1020	0.76	2270	0.817	3940			0.848	> 32000				
NB17 (neuroblastoma, adherent)	0.957	> 5120	0.87	> 1020	0.984	> 5000			0.61	673	0.397	1000				
OVCA433 (ovary, adherent)	0.639	812	0.983	> 1020	0.658	907	0.635	773			0.936	> 32000				
OV-17R (ovary, adherent)	0.431	193	0.973	> 1020	0.866	> 5000	0.957	> 5000			0.899	> 32000				
TE-4 (oesophagus, adherent)	0.641	783	0.985	> 1020	0.821	2890	0.812	2660			0.976	> 32000				
